Experimental data reported in paper PMC6443190, “Regulation of anthocyanin accumulation via MYB75/HAT1/TPL-mediated transcriptional repression” (PLoS Genetics, 2019).
No constants are given. Whether binding was seen depends on the method and setting. For some assays here: Binding seen in cells or lysates may run through a third protein. Some binding calls cover weakened binding; strength is not graded here. For some assays here: Sequences can lack the tags named with a protein. One block for each binder: values may come before it.

How the values were obtained:
[1] = target: T1, MYB75-cYFP (Arabidopsis thaliana) (UniProt Q9FE25); test: split reporter; BiFC in N. benthamiana leaves with HAT1-FLAG or empty FLAG vector coexpressed; YFP read 48 h after coexpression
T1 sequence: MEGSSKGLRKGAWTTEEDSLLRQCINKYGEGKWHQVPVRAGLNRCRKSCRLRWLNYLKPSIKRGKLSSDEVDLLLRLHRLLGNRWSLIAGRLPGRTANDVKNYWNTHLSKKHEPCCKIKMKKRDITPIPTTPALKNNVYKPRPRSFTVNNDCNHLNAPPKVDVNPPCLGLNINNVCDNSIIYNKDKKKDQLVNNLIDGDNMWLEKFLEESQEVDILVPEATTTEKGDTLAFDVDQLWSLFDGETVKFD

[2] = target: T2, MYB75 (pGBKT7 fusion, yeast two-hybrid) (Arabidopsis thaliana) (UniProt Q9FE25); test: two-hybrid; directed assay; yeast AH109 with pairs of pGADT7 and pGBKT7 plasmids; growth on SD-Leu/-Trp/-Ade/-His
T2 sequence: T1 sequence

[3] = target: T3, MYB75-nYFP (Arabidopsis thaliana) (UniProt Q9FE25); test: split reporter; BiFC; nYFP and cYFP fusions coinfiltrated in N. benthamiana leaves
T3 sequence: T1 sequence

[4] = target: T4, HAT1 (bait of the yeast two-hybrid screen) (Arabidopsis thaliana) (UniProt P46600); test: two-hybrid; yeast two-hybrid screen for interaction partners of HAT1; library and constructs not described
T4 sequence: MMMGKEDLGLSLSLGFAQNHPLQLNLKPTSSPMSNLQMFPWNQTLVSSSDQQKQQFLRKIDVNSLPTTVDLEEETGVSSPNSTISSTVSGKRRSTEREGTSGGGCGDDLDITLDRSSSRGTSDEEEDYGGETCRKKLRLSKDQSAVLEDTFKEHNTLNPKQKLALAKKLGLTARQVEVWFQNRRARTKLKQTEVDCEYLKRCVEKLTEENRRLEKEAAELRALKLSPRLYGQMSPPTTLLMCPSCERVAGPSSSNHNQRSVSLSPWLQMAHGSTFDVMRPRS

MBP-EGL3 = target: T5, MBP-EGL3 (Arabidopsis thaliana, UniProt Q9CAD0 1-596); test: pull-down; semi-in vivo: MBP-TT8 or MBP-EGL3 beads added to lysate of Col-0 or 35S:HAT1 protoplasts expressing HA-MYB75; 4 C, 3 h; anti-HA blot; only the target purified
T5 construct: EGL3, Arabidopsis thaliana, At1g63650; pMAL-C2X
T5 sequence (looked up): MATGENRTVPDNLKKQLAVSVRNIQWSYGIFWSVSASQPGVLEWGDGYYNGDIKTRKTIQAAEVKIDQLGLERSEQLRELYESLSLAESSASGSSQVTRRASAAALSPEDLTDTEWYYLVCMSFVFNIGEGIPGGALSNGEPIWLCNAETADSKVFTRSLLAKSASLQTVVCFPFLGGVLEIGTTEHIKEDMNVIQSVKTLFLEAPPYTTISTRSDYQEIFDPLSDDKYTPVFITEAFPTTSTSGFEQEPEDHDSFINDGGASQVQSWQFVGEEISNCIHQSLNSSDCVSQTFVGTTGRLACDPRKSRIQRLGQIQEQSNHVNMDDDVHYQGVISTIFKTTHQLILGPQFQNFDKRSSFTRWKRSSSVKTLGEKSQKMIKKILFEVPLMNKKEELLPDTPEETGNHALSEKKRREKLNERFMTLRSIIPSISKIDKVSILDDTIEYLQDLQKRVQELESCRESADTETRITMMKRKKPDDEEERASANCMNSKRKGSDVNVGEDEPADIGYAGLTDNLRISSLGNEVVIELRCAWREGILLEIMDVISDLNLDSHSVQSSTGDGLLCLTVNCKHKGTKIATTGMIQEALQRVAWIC

MBP-TT8 = target: T6, MBP-TT8 (Arabidopsis thaliana, UniProt Q9FT81 1-518); test: as above
T6 construct: TT8, Arabidopsis thaliana, At4g09820; pMAL-C2X
T6 sequence (looked up): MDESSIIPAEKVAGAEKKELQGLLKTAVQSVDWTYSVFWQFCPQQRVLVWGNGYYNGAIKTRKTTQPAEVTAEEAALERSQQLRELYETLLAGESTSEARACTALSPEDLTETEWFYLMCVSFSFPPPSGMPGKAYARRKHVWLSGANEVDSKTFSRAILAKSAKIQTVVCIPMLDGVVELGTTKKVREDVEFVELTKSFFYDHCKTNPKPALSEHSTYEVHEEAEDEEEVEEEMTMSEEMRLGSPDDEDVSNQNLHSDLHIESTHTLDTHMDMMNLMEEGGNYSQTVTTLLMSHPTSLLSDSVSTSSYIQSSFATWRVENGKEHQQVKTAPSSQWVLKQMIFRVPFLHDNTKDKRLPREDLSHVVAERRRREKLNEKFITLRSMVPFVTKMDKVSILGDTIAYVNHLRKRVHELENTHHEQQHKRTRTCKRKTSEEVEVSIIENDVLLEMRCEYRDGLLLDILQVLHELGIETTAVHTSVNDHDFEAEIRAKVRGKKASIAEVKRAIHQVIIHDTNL

B2: ATHB4 (yeast two-hybrid fusion) (protein, UniProt P92953 1-318)
chain: MGERDDGLGLSLSLGNSQQKEPSLRLNLMPLTTSSSSSSFQHMHNQNNNSHPQKIHNISWTHLFQSSGIKRTTAERNSDAGSFLRGFNVNRAQSSVAVVDLEEEAAVVSSPNSAVSSLSGNKRDLAVARGGDENEAERASCSRGGGSGGSDDEDGGNGDGSRKKLRLSKDQALVLEETFKEHSTLNPKQKLALAKQLNLRARQVEVWFQNRRARTKLKQTEVDCEYLKRCCDNLTEENRRLQKEVSELRALKLSPHLYMHMTPPTTLTMCPSCERVSSSAATVTAAPSTTTTPTVVGRPSPQRLTPWTAISLQQKSGR
binding [2]: no binding

B5: HAT3 (yeast two-hybrid fusion) (protein, UniProt P46602 1-315)
chain: MSERDDGLGLSLSLSLGFNQKDPSSRLNPMPLASYASSSHMQHMQQSNYNHPQKIQNTWINMFQSSERNSDMRSFLRGIDVNRAPSTVVVDVEDEGAGVSSPNSTVSSVMSGKKSERELMAAAGAVGGGRVEDNEIERASCSLGGGSDDEDGSGNGDDSSRKKLRLSKEQALVLEETFKEHSTLNPKQKMALAKQLNLRTRQVEVWFQNRRARTKLKQTEVDCEYLKRCCENLTDENRRLQKEVSELRALKLSPHLYMHMKPPTTLTMCPSCERVAVTSSSSSVAPPVMNSSSPMGPMSPWAAMPLRQRPAAGSH
binding [2]: no binding

B7: HAT1-FLAG (protein, UniProt P46600 1-282)
chain: T4 sequence
binding [1]: binds

B10: HAT2 (yeast two-hybrid fusion) (protein, UniProt P46601 1-283)
chain: MMMGKEDLGLSLSLGFSQNHNPLQMNLNPNSSLSNNLQRLPWNQTFDPTSDLRKIDVNSFPSTVNCEEDTGVSSPNSTISSTISGKRSEREGISGTGVGSGDDHDEITPDRGYSRGTSDEEEDGGETSRKKLRLSKDQSAFLEETFKEHNTLNPKQKLALAKKLNLTARQVEVWFQNRRARTKLKQTEVDCEYLKRCVEKLTEENRRLQKEAMELRTLKLSPQFYGQMTPPTTLIMCPSCERVGGPSSSNHHHNHRPVSINPWVACAGQVAHGLNFEALRPRS
binding [2]: no binding

Further lines, results first:

binding [1]: binds
B1: TT8-nYFP (protein, UniProt Q9FT81 1-518)
chain: T6 sequence (looked up)

binding [1]: binds
B3: EGL3-nYFP (protein, UniProt Q9CAD0 1-596)
chain: T5 sequence (looked up)

binding [2]: no binding
B4: ATHB2 (yeast two-hybrid fusion) (protein, UniProt Q05466 1-284)
chain: MMFEKDDLGLSLGLNFPKKQINLKSNPSVSVTPSSSSFGLFRRSSWNESFTSSVPNSDSSQKETRTFIRGIDVNRPPSTAEYGDEDAGVSSPNSTVSSSTGKRSEREEDTDPQGSRGISDDEDGDNSRKKLRLSKDQSAILEETFKDHSTLNPKQKQALAKQLGLRARQVEVWFQNRRARTKLKQTEVDCEFLRRCCENLTEENRRLQKEVTELRALKLSPQFYMHMSPPTTLTMCPSCEHVSVPPPQPQAATSAHHRSLPVNAWAPATRISHGLTFDALRPRS

binding [3]: binds
B6: HAT1-cYFP (protein, UniProt P46600 1-282)
chain: T4 sequence

binding [4]: binds
B8: MYB75 (hit of the yeast two-hybrid screen) (protein, UniProt Q9FE25 1-248)
chain: T1 sequence

binding (MBP-EGL3): binds
binding (MBP-TT8): binds
B9: HA-MYB75 (protein, UniProt Q9FE25 1-248)
chain: T1 sequence
